This note sets out measurements from PubChem BioAssay AID485344 (National Center for Advancing Translational Sciences (NCATS), 2010).

The whole screen tested about 340,000 compounds, of which about 6,900 (2%) were called active. The entries are a selection whose mix differs from that of the whole data set. Entries without a call were filed so in the source.

UniProt P14416, sequence (P14416 whole entry, looked up): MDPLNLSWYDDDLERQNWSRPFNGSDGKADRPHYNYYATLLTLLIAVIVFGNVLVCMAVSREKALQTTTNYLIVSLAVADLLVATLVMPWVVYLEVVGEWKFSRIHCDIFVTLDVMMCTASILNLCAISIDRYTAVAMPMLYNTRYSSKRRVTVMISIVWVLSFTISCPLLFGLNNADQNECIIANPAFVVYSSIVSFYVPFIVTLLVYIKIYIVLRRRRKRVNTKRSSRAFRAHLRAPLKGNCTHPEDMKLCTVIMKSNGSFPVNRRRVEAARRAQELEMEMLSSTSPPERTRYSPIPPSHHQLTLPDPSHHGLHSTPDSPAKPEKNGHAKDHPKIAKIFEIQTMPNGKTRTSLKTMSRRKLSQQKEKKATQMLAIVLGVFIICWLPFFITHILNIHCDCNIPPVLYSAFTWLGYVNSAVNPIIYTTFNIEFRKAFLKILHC

For the experiment, the target named is D(2) dopamine receptor (Homo sapiens) (UniProt P14416). The experiment in a line: HTS Assay for Allosteric Antagonists of the Human D2 Dopamine Receptor: Primary Screen for Antagonists. Note: 0% is about no effect. Particulars: HEK293 TREx D2 cells, calcium flux, dopamine EC80; at 10 µM; stronger effect = higher value. The method in brief:
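Overnight-induced (tetracycline, 30 C) HEK293 T-REx cells carrying force-coupled D2 receive a no-wash calcium dye, then compound, then EC80 dopamine at 180 s; signals are read kinetically throughout.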
A general note: Calcium flux is commonly read through the fluorescence of an indicator in the cells.
In general, inhibition refers to the relative decrease from the control value, in per cent. Regarding `CCOC(=O)c1c(S(=O)(=O)N2CCCC(C(=O)N3CCN(c4ccccc4)CC3)C2)c(C)n(C)c1C` (stereo unspecified), the inhibition is 21.4%.
`Cc1ccccc1OC(=O)CSc1nnc(-c2cccs2)o1`: the inhibition is 18.4%.
In the case of `COc1ccc(-c2nc3ccccc3o2)cc1NC(=O)COc1ccc(C(C)(C)C)cc1`, the inhibition was -22.3%.
For `COc1cccc(N2CC(NC(=O)c3ccc(S(=O)(=O)N4CCCCC4)cc3)CC2=O)c1` (stereo unspecified) the value was 27.8%.
The result for `CCOc1ccc(S(=O)(=O)NCC(c2ccco2)S(=O)(=O)c2ccc(F)cc2)cc1` (stereo unspecified) reads 0.979%.
The result for `CCOC(=O)c1cc2c(=O)n3ccccc3nc2n(CC2CCCO2)c1=NC(=O)c1ccc(C)cc1` (stereo unspecified) reads 0.59%.
Regarding `O=[N+]([O-])c1ccc(C(c2sc3nc(-c4ccco4)nn3c2O)N2CCN(c3cccc(Cl)c3)CC2)cc1` (stereo unspecified), the inhibition is -27.3%.
The result for `CCc1ccc2oc(C(=O)Nc3sc4c(c3C(=O)NC)CCCC4)cc(=O)c2c1` reads -2.77%; that for `O=C(Nc1ccc(Cl)cc1F)c1cc(S(=O)(=O)NCc2ccc3c(c2)OCO3)ccc1F`, -7.02%; that for `CCOc1ccc(C(=O)Nc2cccc(OCc3cc(=O)n4cc(C)sc4n3)c2)cc1`, 3.38%.
For `CCCCOC(=O)c1cccc(NC(=O)c2cc3ccccc3o2)c1` the value was -2.25%; for `COc1cccc(CNCCSc2nnnn2C)c1OCc1ccccc1F`, 7.94%; for `CCCCn1cc(S(=O)(=O)c2cccc(C)c2)c(=O)c2cc(F)c(N3CCOCC3)cc21`, -14%.
The result for `O=C(NCCc1ccccc1)c1ccc(CSc2nc3ccncc3n2Cc2ccc(F)cc2)cc1` reads 0.425%; that for `Cc1ccc(-c2nnn3c2nc(NCC(C)c2ccccc2)c2ccccc23)cc1` (stereo unspecified), -10.6%; that for `COc1cccc(CNC(=O)c2ccc3c(c2)nc2n3CCOC2)c1`, -3.65%.
With `CCOC(=O)CSc1nc2sc3c(c2c(=O)n1-c1ccccc1)CC(C(C)C)OC3` (stereo unspecified), the inhibition was determined as 0.263%.
On to `CCOc1ccc(CNC(=O)c2ccc(CS(=O)Cc3ccc(Cl)cc3)o2)cc1` (stereo unspecified), for which the inhibition is -10.7%.
For `CCN(Cc1ccccc1)C(=O)CN1C(=O)COc2ccc(S(=O)(=O)NC3CCCC3)cc21`, the inhibition was determined as 4.34%.
Consider `CCOC(=O)c1[nH]c(C)c(C(=O)NC(CC)Cc2ccccc2)c1C` (stereo unspecified), for which the inhibition was 13%.
The result for `O=C(CN1C(=O)COc2ccc(S(=O)(=O)NC3CCCC3)cc21)Nc1ccc(Cl)cc1` reads 20.6%; that for `CC(=O)Nc1ccc(NC(=O)CSc2nc3ccccc3nc2N2CCCCC2)cc1`, -2.26%.
The result for `CCN1CCN(c2ncnc3c2cnn3-c2ccc(C)c(C)c2)CC1` reads 15.3%.
Take `Cc1ccc(C)c(NC(=O)Cn2c(=O)n(CC3CCCO3)c(=O)c3ccccc32)c1` (stereo unspecified): the inhibition was -4.38%.
For `COc1ccc(C(=O)Nc2cc(C)c(O)c(-c3nc4ccccc4s3)c2)cc1OC` the value was -5.15%.
With `Cn1c(-n2cccc2)c(-c2c(-c3ccccc3)[nH]c3c2c(=O)[nH]c(=O)n3C)c(=O)[nH]c1=O`, the inhibition is -14.6%.
